This passage reports growth results from PubChem BioAssay (NCI).

A structure can be active in one record and inactive in another.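 Testing used 96-well plates and a 48-hour single-concentration exposure. Example: -40 means 40% of the starting cells died.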 The source holds more than one record for some entries. They are shown here; other results are not. The source may hold further records. For some of these results: These are repeated runs of one drug, at the concentration stated with the values; each value is one run. Brackets with × stand for listed records that agree. Entries with a single value are a further part of the results. Calls of active or inactive are those of the source. The calls were made as follows: active = growth percent below 10; inactive = the rest.

The subject of this assay is MCF7 breast. The assay is described as follows: NCI-60 one-dose screen, 48 h (100 = growth as untreated, 0 = no growth, -100 = all killed).

`COc1cccc2c1C(=O)c1c(O)c3c(c(O)c1C2=O)C[C@@](O)(C(=O)CO)C[C@@H]3OC1CC(N)C(O)C(C)O1` (some centres not stated): the growth runs as follows: (0.25 µM, runs of 2006) active: 7.42%; (0.25 µM, runs of 2007) “inactive: 18.2, 16.7, 13.5, 31.9, 14.1 (2×), 26.7, 24.6, 20.4 (2×), 17.6 (2×), 22.1 (2×), 13.4, 20.1, 18.3, 24.4, 21.7, 16.1, 23.2, 21.8, 23.1, 15.4, 17.8, 27.6, 16.8, 17.4, 15.7, 39.2, 40.7, 19.9, 22.6, 14, 15, 17.3, 16.6, 25.5% and active: 6.54%, 9.77%, -12.1%”; (0.25 µM, runs of 2008) “inactive: 19.6 (3×), 19, 12, 23.5 (2×), 20.6, 21.8 (2×), 21.7, 24, 15.7 (2×), 15.8, 17.4, 10.5, 13.3, 11.2, 15.1, 16.7, 15.6, 90.3, 18.8, 10.3, 10.6, 12.9 (2×), 13.6, 15.9 (2×), 22, 22.9% and active: 4.97, 8.37, 4.9, 9.91, -3.16, 7.65, -0.492, 6.09, 6.2, 6.46, 8.26, 9.66, 8.79, 8.01, 6.9, 7.46%”; (0.25 µM, runs of 2009) “inactive: 17.4, 12.5, 14.5, 27.5, 23.5, 16.1, 19.6, 21.7, 17.8, 19.7, 15.8, 19.2, 16 (2×), 14.7, 15.7, 13.5 (2×), 15.6, 14.6, 19, 11.2, 28.1, 16.9 (2×), 20.6, 17.5, 15.4, 19.9, 13.6, 11.8, 15.2 (2×), 15.5, 10.2, 14, 15.3, 22.3 (2×), 19.5, 13.1, 23.9, 25.8 (2×), 13.8 (2×), 33.7, 28, 26.2, 23.3, 22.5, 13% and active: 7.75, 7.02, -7.99, -3.91, 9.55, 9.7%”; (0.25 µM, runs of 2010) “inactive: 20, 23.3 (3×), 30.4, 23.6, 22.6 (2×), 20.7, 23.5, 21.3, 25.5, 20.2 (2×), 22.7, 22.5 (2×), 19.4 (2×), 20.4 (2×), 23.7 (2×), 17.5, 19.7, 17.3, 13.4, 14.9, 15.2, 16, 27.1, 33.5, 17.8, 30.2, 23.4, 26.9, 24, 24.3, 25, 19.2, 23.2 (2×), 23, 21.7, 28.1, 26.3, 21.9, 21%”; (0.25 µM, runs of 2011) “inactive: 19.9, 24.6 (2×), 26.3, 22.5 (3×), 25.2, 23.1, 29.5, 26.4 (2×), 23.4 (2×), 23, 27.6, 32.4 (2×), 10.3, 29.8, 30.6, 18.7, 24.8, 24, 29.2, 37.1, 23.9, 24.5, 19.3, 12.7, 22.1 (2×), 24.2, 16.1, 15.8, 16.8, 17, 14.9, 16.2, 19.4 (2×), 14.2, 14.5, 21.2, 17.6 (2×), 16.6, 14.6, 28.8, 22.7, 22.6, 23.7%”. Moreover, the growth entry is “inactive: 25.5, 18, 19.2, 17.8, 21.3, 19.7 (2×), 25.1 (2×), 23.2, 25.9, 27.2 (3×), 15, 18.2, 16.9, 20.9, 11.5, 18.1, 24.2, 20.1 (2×), 19.5, 22.6, 25.6 (2×), 28.9, 27.6, 30.2, 25.8, 24.8, 23.3, 22.3, 22, 15.5, 21 (2×), 24.4, 30.9, 26.4, 24, 33.8, 30.5 (2×), 24.6 (2×), 26.2 (2×), 26.3, 27.5, 29.3, 26.7, 28.7, 27, 23.6, 20, 20.3, 20.4, 21.9% and active: 2.74%” (0.25 µM, runs of 2012); “inactive: 23.2, 19.8 (2×), 23, 24, 24.4, 27.5, 14.5, 21.7 (2×), 22.2, 20.5, 23.6 (2×), 21.8, 20.6 (2×), 24.3, 30.6, 25.7, 27.6 (2×), 25.6, 28.8 (2×), 26 (3×), 23.1, 25.1 (2×), 23.5, 28.5, 18.8, 25.5 (2×), 23.9 (3×), 27.1, 26.7, 29.6, 22.3, 25.2 (2×), 22.5 (2×), 24.6, 28, 26.4, 31.3, 30.7, 29.2, 19, 22.9, 19.4, 19.3, 18.7, 20.3, 21.2, 24.8, 17.6, 13.6, 17.4% and active: 8.47%” (0.25 µM, runs of 2013); “inactive: 17.6, 20.9, 16.2 (3×), 14.9 (2×), 15.9, 23.3, 15.8 (2×), 13.2, 15.4 (3×), 12.1 (2×), 19.2, 24.6, 35, 17.3, 20 (2×), 16.9, 18.2, 16.6 (2×), 16.8, 16.5 (2×), 17.1, 18.8, 18, 20.6, 19.7, 19.6, 15.3 (2×), 14.3 (2×), 16, 13.5, 21.8, 20.3, 15.6, 15.2 (2×), 15, 10.6 (2×), 11, 11.7 (2×), 13.6, 13 (2×), 12.9, 11.9, 10.2, 13.7, 11.8, 20.5, 23.9, 14.2, 19.8% and active: 9.38, 9.44, 8.74, 8.1, 7.95, 7.35, 9.5, 7.38, 9.29%” (0.25 µM, runs of 2014); “inactive: 17.3, 18.7 (4×), 23.4 (2×), 18, 17.8 (2×), 13.5, 15.7 (2×), 22.1 (2×), 22.2, 14.1, 18.1 (2×), 15.1, 13.8 (2×), 10, 16.8, 23.3, 11.6, 16.9, 22.6 (2×), 15.2 (2×), 21 (2×), 17.5 (2×), 19.5 (2×), 23.7, 20.1 (2×), 19, 21.8 (2×), 26, 21.2, 23.2, 19.3, 16.7, 19.4, 26.1 (2×), 15.5, 19.8 (2×), 17.1, 20.5, 25.8, 26.9, 23.9, 23.6, 18.8, 17, 15.9, 19.2, 20.7, 26.4, 25.7, 25.3%” (0.25 µM, runs of 2015); “inactive: 20.5 (3×), 17.1, 19.2 (3×), 21.7 (2×), 23, 20 (2×), 23.2 (3×), 19.4, 22.2 (3×), 24.5, 25.6, 18.7, 21.9 (5×), 19.6 (2×), 20.1, 19 (2×), 19.7 (2×), 20.2, 21.2, 22.6 (3×), 16.1, 23.8, 18 (2×), 16.2, 22.5, 17, 19.9, 21, 26.9, 20.7, 24, 23.3 (2×), 24.6, 22 (2×), 19.5 (2×), 19.3 (2×), 19.8, 17.4 (2×), 17.8, 18.3, 20.6, 29.1, 26.8, 23.6 (2×), 27.5, 28.5%” (0.25 µM, runs of 2016); “inactive: 17.1 (2×), 16.5 (4×), 17.5 (2×), 17 (2×), 17.6, 19.7 (2×), 21, 13.4, 20.1 (3×), 20.5 (3×), 19.5, 18.8 (3×), 23.8 (2×), 25.9, 15.7, 18.7 (2×), 21.8, 22.2, 20.6 (2×), 20.2 (2×), 16.7, 23.6 (2×), 25.5, 19.4 (2×), 22.7, 18.3 (2×), 19, 21.3 (2×), 16.9, 18.1, 14.5, 20.3, 18.2, 19.9, 22.5, 13.7, 15.3, 14, 17.8, 24.2, 19.8, 23.5, 22.3, 20.7 (2×), 21.2, 16%” (0.25 µM, runs of 2017). Moreover, the growth entry was “inactive: 20.1 (4×), 19.2, 19.9 (2×), 17.3 (2×), 15.8 (2×), 16.2, 15.4, 20.4, 18.2 (2×), 19.6, 22.9, 24.2, 20.2 (2×), 21.8 (2×), 19.4 (3×), 23.9, 21, 17.5, 20.5 (2×), 27, 25.7, 18.1 (2×), 20.7, 19.3, 22.5, 21.3 (2×), 22.7, 20.6, 23, 22% (2×) and active: 9.82%” (0.25 µM, runs of 2018); “active: 8.41%, 8.67%, 9.78% and inactive: 14 (2×), 14.5, 13.8, 13.6 (2×), 20.5, 22.3, 18.1, 22.6, 22.2, 20.6, 15.3 (2×), 14.1 (2×), 18.2, 19.4, 15.8, 16.8, 16.7, 18.8, 14.9, 21.3, 19.9, 17.3, 16.1, 17.8, 17.6, 20.3, 22.5, 15.4, 17.4, 15.7, 20.2, 20.7, 21, 12.7, 12.9%” (0.25 µM, runs of 2019); “inactive: 15.1, 15, 21.7, 19.4, 17.4 (2×), 15.9 (3×), 15.4, 20.9 (2×), 17.6, 19.3, 20.5, 18.1, 19.7, 17.1, 22.1, 13.1, 25.3, 31.2%” (0.25 µM, runs of 2020); “inactive: 25.1 (2×), 19.4, 26.4, 15.7 (3×), 16.5, 14, 13.6, 13.3, 13, 15.8 (2×), 15.4, 19.2, 15.5 (2×), 14.2, 18.7 (2×), 17, 14.9 (2×), 20.7, 18.3 (3×), 18, 14.1, 17.5 (2×), 16.9, 17.1, 14.6, 17.4, 20.5 (2×), 22, 22.1, 23.7, 16.8, 20.2, 13.7, 10.8, 11.8, 10.5, 19.9, 19.6% and active: 7.02%” (0.25 µM, runs of 2021); “active: 4.97, 5.5, 0.756, 9.53% and inactive: 16.1, 17.5, 16.6, 17.1, 22.6, 15.2, 18.3, 16.5, 34, 31.9, 33.1, 37.8, 19.9, 18.2, 14, 21.2, 18.7%” (0.25 µM, runs of 2022); “active: -27.3, -45.6, 1.53, -45.8, -39.6, -23.5, -32.4, 3.96, -37.2, -36.4 (2×), 4.05, -7.88, 4.92, -30.6, -2.04, -9.74, -27, -14.1, -1.78, -24, 1.28, -4.51, -11.6, -18, -8.31, -7.39, -19.2, -9.34, -0.413, -1.24, -2.93, -20.8, -39.1, -12.3, 0.322, -42.1, 3.54, -17.8, -39.7, -30.3, -38, -50.9, -11.8, -16, -32.2%” (25 µM, runs of 1993). The growth result is, setting by setting: (25 µM, runs of 1994) “active: -9.6, -2.1, -56.9, 1.21, -15.3, 4.38, -9.28, 8.01, -14.1, -17.4, -20.9, -22, -9.15, -0.674, -28.2, 2.8, -3.74, -27.6, -20.8, 1.17, -69.4, 3.5, -27.5, 5.78, -31, 0.808, -9.66% and inactive: 120%, 11.7%”; (25 µM, runs of 1995) “active: 2.81, -31.2, -15.9, -17.8, -31.5, -51.4, 1.62, 2.59, -34.3, -26.2, -65.5, -20.3 (2×), -42.2, -47.1, 1.89, 1.13, -67.5, -25, 7.02, -20.7 (3×), 2.53, -26.8 (2×), 6.21, 2.94, -19, 2.17, 4.43, -11.6, 0.505, -21.3, 1.61, -3.21, 1.47, -25.6, -24.2, -7.51, -22.7, 0.68, 3.81, 1.83, 7.2, -0.415, 5.28, 5.55, 2.54, -41.9% and inactive: 11.9%, 52.2%, 29.5%”; (25 µM, runs of 1996) “active: -5.04 (2×), -11.1, -1.06, 3.68, -12.9, -5.2, 1.57, 3.95, 0.853, -88.3, -44, -49.2, 2.64, -5.58, -18.3, -15.2, -21.2, -3.09, -43.4, 2.97, -62.9, -71.3, -17.9, -100 (2×), -59.7, 5.57, 7.71, -2.43, -6.01, -6, -47.5, -6.91, 7.57, 6.58, -17.2, 3.56, -2.16, -23.6 (2×), -8.96, -18.7, 0.419, -25.6, -45 (2×), -66.7, 1.93, 6.2 (2×), -8.12, -28.2, 6.85, -15.7 (2×), -8.41, -23.3, -62.5, -94, 1.22, -18.1, -13.8, -16, -25.2, -13.5, -25.3, -4.38, -21, -8.42, -31.3, -40.5, 1.33, 4.07, -9.75, 7.89, 2.49, 0, -40.3, 6.64, -12.4, 2.58, -16.1, -40.1, 1.09, -38.5, -22.1, -36.7, -3.32, -45.4, -44.3, -22, 2.39, -42.3, -3.61, -4.93, 0.114, -3.5, 3.72, 7.67, -50.5, -67.7, 4.02% and inactive: 10.4, 85.5, 83.6, 11, 89.4, 12.2, 41.2, 11.1, 15.5%”; (25 µM, runs of 1997) “active: 4.21, -27.2, 3.64, 3.87, 2.24, -33.5, 3.66, -43.7, 5.14, -8.3, -6.23, 8.92, -18.3, 5.58, -32.1, -24.7, -6.14, -27.1, -24.3, -0.972, -3.3, 0.673, 1.12, -36.6, -18, -12.3, 2.31, -9.69, -4.46, -24.5, -7.41, -44.5, -40, -21.1, -20, -3.83, 0.259, -14.1, -34.8, -4.59, -11.7, -6.49, 9.16, -2.96, -55.4, -18.2, -34.7, -53.8, -71, -26.9, -13.7, -35.4, 4.74, 6.14% and inactive: 12, 89.3, 11, 11.7, 69, 70.6, 21.7%”.
